In PubChem BioAssay AID2546 (National Center for Advancing Translational Sciences (NCATS), 2010):
Out of some 310,000 compounds screened, about 11,000 (3.5%) were called active. The shares of active, inactive and inconclusive entries below differ from those in the screen. The call rests on the fitted dose curve; in most records, active means well fitted inhibition curve with a large enough effect; inconclusive means small, poorly fitted or top-dose-only effect, or effect the other way; inactive means flat fitted curve, though single readings scatter. No potency is given beside an inconclusive call; the fits are too rough.

Experiment: VP16 counterscreen qHTS for inhibitors of ROR gamma transcriptional activity;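 further: Gal4-VP16 expression switched on by copper sulfate through the metallothionein promoter; nearly all actives have a fitted effect of over 50% in size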
Conditions: Drosophila S2 Gal4-VP16 UAS-luciferase, luminescence, 20 h; activity, negative = inhibition: at 53.6 µM (top of the series)
On the % scale 0 is the no-effect control and ±100 the full control effect; potency means the concentration at half of the fitted maximal effect; tags describe the fitted curve by direction and shape.

SMILES | activity, negative = inhibition | Potency
COc1cc(OC)cc(C(=O)N[C@H](C(=O)NCc2ccc(F)cc2)C(C)C)c1 | inactive: 0.141% | –
COC(=O)c1ccc(OS(=O)(=O)c2ccc(NC(C)=O)cc2)cc1 | – | inconclusive [inhibitor, single point]
COc1cc(NC(=S)Nc2ccccn2)cc(OC)c1OC | – | active: 22.4 µM
CCOC(=O)N1CCN(c2ccc(S(=O)(=O)N(Cc3ccccc3)Cc3ccccc3)cn2)CC1 | – | inconclusive [inhibitor, partial curve]
Cc1ccccc1OCC(=O)NC(=S)Nc1ccccc1N1CCN(S(C)(=O)=O)CC1 | – | inconclusive [inhibitor, single point]
CN(C)CCCN(C(=O)CCc1ccccc1)c1nc2ccc(Cl)cc2s1 | – | inconclusive [inhibitor, single point]
O=C(Nc1cccc(-c2cn3ccccc3n2)c1)c1cccc(Cl)c1 | – | inconclusive [inhibitor, single point]
N#CCC(=O)Nc1ncc(Cc2ccccc2Cl)s1 | – | inconclusive [inhibitor, single point]
CCc1nnc(N/N=C/c2c(Cl)cccc2Cl)n1N | – | inconclusive [inhibitor, single point]
COc1ccc(C)cc1S(=O)(=O)NCCC1=CCCCC1 | – | active: 11.2 µM
N#C/C(=C(/O)c1ccc(F)cc1)c1nc2ccccc2s1 | – | inconclusive [inhibitor, single point]
COc1ccc(Br)cc1C1C2C=CCCC2(C)C(=O)N1Cc1ccccc1 (configuration not stated) | – | inconclusive [inhibitor, single point]
CCOc1cc(/C=N/NC(=O)c2cc(-c3ccccc3)nc3ccccc23)ccc1O | – | inconclusive [inhibitor, single point]
COC(=O)c1sc(NC(=S)NC(=O)c2cccc(C)c2)nc1C | – | inconclusive [inhibitor, single point]
CN(C)[C@H]1N(C(=O)c2ccc(Br)cc2)N=C2c3ccccc3S(=O)(=O)N21 | inactive: 0.549% | –
CCCCOC(=O)CCn1[nH]c(=O)c2ccccc2c1=O | – | inconclusive [inhibitor, single point]
COc1ccc(C(=O)NCc2nnc(SCC(=O)Nc3nc4ccc(C)cc4s3)o2)cc1OC | – | active: 7.94 µM
Cc1nn(Cc2ccccc2Cl)c(C)c1C(=O)NCCN1C(=O)S/C(=C\c2ccccc2)C1=O | – | inconclusive [inhibitor, single point]
CC(=O)N1c2ccc(S(=O)(=O)NCCC(=O)NC3CCCC(C)C3C)cc2CC1C (configuration not stated) | inactive: -8.24% | –
Fc1cccc(F)c1/C=N/NC(=S)Nc1cccnc1 | – | active: 3.55 µM
CC(C)(C)c1cc(C(c2cccnc2)N2CCN(CCO)CC2)cc(C(C)(C)C)c1O (configuration not stated) | – | active: 17.8 µM
Cc1ccc(-c2cc(C(=O)N3CCCCCC3)no2)cc1 | – | inconclusive [inhibitor, single point]
CCOC(=O)C1CCN(S(=O)(=O)c2ccc3c(c2)N(C(C)=O)CC(C)S3)CC1 (configuration not stated) | – | inconclusive [inhibitor, single point]
CCOC(=O)c1ccc(NC(=O)CSCCC(=O)O)cc1 | – | inconclusive [inhibitor, single point]

SMILES | activity, negative = inhibition | Potency
CC(=O)C1=NN(c2ccccc2)C(c2ccc3c(c2)OCO3)N1c1ccccc1 (configuration not stated) | inactive: -5.67% | –
CC(NC(=O)COc1ccccc1F)C1CC2CCC1C2 (configuration not stated) | inactive: 10% | –
COc1ccc(C(=O)/C=C/Nc2cccc(O)c2)cc1 | – | active: 2 µM
CCCC1=NN(C(=O)Cc2ccc([N+](=O)[O-])cc2)C(O)(C(F)(F)F)C1 (configuration not stated) | – | inconclusive [inhibitor, single point]
Cc1ccc(/C=N/NC(=O)C(C)Oc2cccc3ccccc23)o1 (configuration not stated) | – | inconclusive [inhibitor, single point]
O=c1c2ccccc2[nH]c(=S)n1CCN1CCN(Cc2ccccc2)CC1 | – | inconclusive [inhibitor, single point]
CC(=O)Nc1ccc(NC(=O)CSc2nc3c([nH]c4ccccc43)c(=O)n2-c2ccccc2F)cc1 | inactive: -2.84% | –
CCOC(=O)C1=C(C)Nc2nc3ccccc3n2C1c1cccs1 (configuration not stated) | – | active: 5.01 µM
COc1ccc(-c2nn(-c3ccccc3)cc2C(=O)Nc2nccs2)cc1 | – | active: 11.2 µM
CC1(C)CC2CC(C)(CN2S(=O)(=O)c2ccc(C(=O)Nc3ccc(Cl)c(S(=O)(=O)N4CCOCC4)c3)cc2)C1 (configuration not stated) | – | active: 12.6 µM
Cc1ccco1 | inactive: 0.201% | –
COc1ccc(C)cc1NC(=S)NC(C)c1ccc(OC)c(OC)c1 (configuration not stated) | – | active: 10 µM
CCOC(=O)c1c(-c2ccc(OC)cc2)oc2cc(Br)c(O)cc12 | – | inconclusive [inhibitor, single point]
Cc1ccc(-n2c([C@@H]3C[C@H]3c3ccccc3)n[nH]c2=S)cc1 | – | inconclusive [inhibitor, single point]
CCOCC(=O)Nc1nc2ccccc2s1 | – | inconclusive [inhibitor, single point]
CC1S/C(=N/N=C2CCCCC2)NC1=O (configuration not stated) | – | inconclusive [inhibitor, single point]
CCC(=O)Nc1ccc(Oc2ccc(NC(=O)CC)c(NC(=O)CC)c2)cc1 | inactive: 2.46% | –
CC(C)[C@H](NC(=O)Cc1ccccc1)C(=O)OCc1cc(=O)n2c(n1)sc1ccccc12 | inactive: -0.42% | –
O=C1C2C(C(=O)N1c1ccc3c(c1)OCO3)C1C=CC2C12CC2 (configuration not stated) | inactive: -9.04% | –
CCSc1nnc(NC(=O)c2cc(C)oc2C)s1 | – | inconclusive [inhibitor, single point]
Cc1ccc(N2C(=O)c3cccc4c(N5CCN(C)CC5)ccc(c34)C2=O)c2cccnc12 | inactive: -12.2% | –
NC(=S)N=Nc1c(O)n(Cc2ccccc2)c2ccccc12 | – | inconclusive [inhibitor, full curve, poor fit]
CCOC(=O)c1c(/N=C/c2cccc([N+](=O)[O-])c2O)sc(C)c1C | – | inconclusive [inhibitor, single point]
